{"source": "PubChem BioAssay AID651820", "about": "(National Center for Advancing Translational Sciences (NCATS), 2012)", "note": "Screen size: about 340,000 compounds; about 12,000 (3.5%) were called active. Inconclusive means that the source gave no clear call. Such entries were picked first, then a sample of the others. The call rests on the fitted dose curve; in most records, active means well fitted inhibition curve with a large enough effect; inconclusive means small, poorly fitted or top-dose-only effect, or another doubt; inactive means no such curve, though single readings can be large or run the other way. No potency is given beside an inconclusive call; the fits are too rough. On the % scale 0 is the no-effect control and ±100 the full control effect; potency means the concentration at half of the fitted maximal effect; tags describe the fitted curve by direction and shape."}
{"test": "qHTS Assay for Inhibitors of Hepatitis C Virus (HCV)", "settings": "Huh7.5.1 HCVcc-Cre (HCVcc is cell-culture hepatitis C virus) infection, luciferase reporter, 44 h; activity change, negative = inhibition: at 41.8 µM (top of the series) unless noted", "procedure,_shortened": "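Luciferase read-out (15 sec integration) after a 15 min room-temperature substrate step quantifies HCVcc-Cre infection. Cells, 1,000 per well, had compound added 4 h post-plating, then virus at ~0.5 moi, and were cultured 44 h.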"}
{"smiles": "CCOc1ccccc1NC(=O)[C@@H](NC(=O)c1cccc(S(=O)(=O)N2CCOCC2)c1)C(C)C", "activity change, negative = inhibition": "inactive: 12.1%"}
{"smiles": "COc1ccc(OCCOC(=O)c2ccc(F)c(S(=O)(=O)N3CCOCC3)c2)cc1", "Potency": "inconclusive [inhibitor, single point]"}
{"smiles": "Cc1cc(C)cc(CSc2ccc(S(=O)(=O)N3CCCC3)cn2)c1", "Potency": "inconclusive [inhibitor, full curve]"}
{"smiles": "COc1ccc(/C=N/NC(=O)c2ccccc2Cl)cc1CSc1nc2ccccc2s1", "Potency": "inconclusive [inhibitor, single point]"}
{"smiles": "COc1ccc(CC(=O)Nc2cccc(S(=O)(=O)N3CCCCC3)c2)cc1", "Potency": "inconclusive [inhibitor, single point]"}
{"smiles": "COc1cccc(CNS(=O)(=O)c2ccc3c(c2)CC(C)N3C(=O)C2CCC2)c1", "note": "(centres undefined)", "Potency": "active: 6.31 µM"}
{"smiles": "COc1ccc(N2CCN(C(=O)Cn3c(=O)c4cccn4c4cccnc43)CC2)cc1", "Potency": "inconclusive [inhibitor, partial curve]"}
{"smiles": "O=[N+]([O-])c1cc(C(F)(F)F)ccc1N1CCCC(O)C1", "note": "(centres undefined)", "activity change, negative = inhibition": "inactive: -10.4%"}
{"smiles": "C[n+]1ccn(CC(=O)c2ccc(Br)cc2)c1", "activity change, negative = inhibition": "inactive: -0.238%"}
{"smiles": "O=C(c1cc2nc(-c3cccs3)cc(C(F)(F)F)n2n1)N1CCCc2ccccc21", "Potency": "active: 10 µM"}
{"smiles": "N#Cc1c(-c2ccccc2)c(C#N)c2nc3ccccc3n2c1N", "Potency": "inconclusive [inhibitor, partial curve]"}
{"smiles": "Cn1c(-c2cc(Cl)ccc2O)nc2c1c(=O)[nH]c(=O)n2Cc1ccccc1", "Potency": "inconclusive [inhibitor, partial curve, poor fit]"}
{"smiles": "c1ccc(CNc2c3c(nc4ccccc24)CCC3)cc1", "Potency": "inconclusive [inhibitor, single point]"}
{"smiles": "CCOC(=O)C1CCN(c2c(NCCCN(CC)c3ccccc3)c(=O)c2=O)CC1", "Potency": "inconclusive [inhibitor, partial curve]"}
{"smiles": "C/C(=C\\C(=O)c1cccnc1)Nc1ccc(C)c(C)c1", "Potency": "inconclusive [inhibitor, partial curve]"}
{"smiles": "COc1ccc(N(C)S(=O)(=O)c2cccc(C(=O)OCC(=O)N(C)c3ccccc3)c2)cc1", "Potency": "inconclusive [inhibitor, single point]"}
{"smiles": "COc1cc(/C=C/C(=O)OCC(=O)N2CCCc3ccccc32)ccc1OC(F)F", "activity change, negative = inhibition": "inactive: 10.7%"}
{"smiles": "CCOC(=O)c1ccc(N2C(=O)CC(SCC(N)C(=O)OCC)C2=O)cc1", "note": "(centres undefined)", "activity change, negative = inhibition": "inactive: -5.45%"}
{"smiles": "Cc1[nH]nc(N=CC2=C(O)CC(C)(C)CC2=O)c1-c1ccccc1", "Potency": "inconclusive [inhibitor, full curve]"}
{"smiles": "CCn1c(SCC(=O)c2c[nH]c3ccccc23)nc2cc(S(=O)(=O)N3CCOCC3)ccc21", "Potency": "inconclusive [inhibitor, partial curve]"}
{"smiles": "O=C(CCCN1C(=O)/C(=C/c2ccccc2)SC1=S)Nc1ccccc1O", "Potency": "inconclusive [inhibitor, partial curve, poor fit]"}
{"smiles": "O=C(Oc1c(CN2CCOCC2)cc(Cl)c2cccnc12)c1ccccc1Br", "Potency": "inconclusive [inhibitor, partial curve]"}
{"smiles": "Cc1cc(NC(=O)NC(=O)c2ccccc2NC(=O)C(C)N)ccc1Oc1ncc(Br)cn1", "note": "(centres undefined)", "activity change, negative = inhibition": "inactive: -22.7%"}
{"smiles": "COc1ccccc1OCC#CCN1CCCC(C)C1", "note": "(centres undefined)", "activity change, negative = inhibition": "inactive: 17.7%"}
{"smiles": "CN1C[C@@H]2[C@@H]3C(=O)N(Cc4ccccc4)C(=O)[C@@H]3[C@](Cc3ccccc3)(C1=O)N2C(=O)c1ccc(C(C)(C)C)cc1", "Potency": "inconclusive [inhibitor, single point]"}
{"smiles": "CC(C)C(=O)N1CCN(c2ccccc2NC(=S)NC(=O)c2ccco2)CC1", "Potency": "inconclusive [inhibitor, single point]"}
{"smiles": "COc1ccccc1CC(=O)Nc1ccc(S(=O)(=O)N(C)C2CCN(C)CC2)cc1", "activity change, negative = inhibition": "inactive: -25.1%"}
{"smiles": "S=C(NCCN1CCCCC1)Nc1ccccc1", "activity change, negative = inhibition": "inactive: -16.7%"}
{"smiles": "CN(C)c1cccc(C(=O)N(C)C2CCCN(Cc3ccccc3F)C2)c1", "note": "(centres undefined)", "activity change, negative = inhibition": "inactive: -16.5%"}
{"smiles": "O=C(c1cccnc1)n1nc(-c2ccco2)nc1NCc1cccs1", "activity change, negative = inhibition": "inactive: 5.9%"}
{"smiles": "COc1cnc(-c2ccccn2)nc1Sc1ccccc1Cl", "Potency": "inconclusive [inhibitor, partial curve, poor fit]"}
{"smiles": "CC(C)=CC1C(C(=O)Nc2ccc(S(=O)(=O)N3CCOCC3)cc2)C1(C)C", "note": "(centres undefined)", "Potency": "inconclusive [inhibitor, single point]"}
{"smiles": "CN(C)S(=O)(=O)c1ccc(NC(=O)N2CCN(c3cccc(C(F)(F)F)c3)CC2)cc1", "Potency": "active: 11.2 µM"}
{"smiles": "N#C/C(=C\\c1ccccc1O)C(=O)Nc1cccnc1", "Potency": "inconclusive [inhibitor, single point]"}
{"smiles": "O=C(NCC1CCCO1)C1CCCN(S(=O)(=O)c2cc(Cl)ccc2Cl)C1", "note": "(centres undefined)", "Potency": "inconclusive [inhibitor, single point]"}
{"smiles": "Clc1nc(CN2CCOCC2)nc2sc3c(c12)CCC3", "activity change, negative = inhibition": "inactive: -11.5%"}
{"smiles": "CN(Cc1cccs1)C(=O)c1cc(S(=O)(=O)N2CCOCC2)ccc1N1CCCC1", "activity change, negative = inhibition": "inactive: 2.84%"}
{"smiles": "Cc1cc(NC(C)c2ccccc2)n2ncc(-c3ccccc3)c2n1", "note": "(centres undefined)", "Potency": "inconclusive [inhibitor, single point]"}
{"smiles": "COCCCn1[nH]c2c3c(ccc2c1=O)C(=O)c1ccccc1C3=O", "Potency": "inconclusive [inhibitor, single point]"}
{"smiles": "CN1CCN(C(=O)c2cc3c(s2)-c2ccccc2S(=O)(=O)C3)CC1", "activity change, negative = inhibition": "inactive: 9.91%"}
{"smiles": "CC(Oc1ccc2c(c1)c1ccnc3c4ccccc4c(=O)n2c13)C(=O)NCCN1CCOCC1", "note": "(centres undefined)", "Potency": "active: 11.2 µM"}
{"smiles": "C#Cc1ccc(CN2CCC(N3CCC(C(=O)NCc4ccccn4)CC3)CC2)cc1", "Potency": "inconclusive [inhibitor, partial curve]"}
{"smiles": "Cc1nc2sc(C(=O)O)c(N)c2c2c1COC(C)(C)C2", "Potency": "inconclusive [inhibitor, partial curve, poor fit]"}
{"smiles": "CC(Oc1ccc(F)cc1)C(=O)Nc1cc(S(=O)(=O)N2CCOCC2)ccc1N1CCCCC1", "note": "(centres undefined)", "Potency": "inconclusive [inhibitor, partial curve]"}
